Measurements from the supplement of paper PMC8728848.
The other results are listed elsewhere or left out.

How the values were obtained:
Experiment in all cases: glycan array binding signal (z-score within array); higher = stronger binding
Conditions in all cases: glycan notation: IUPAC condensed, linker removed
[1] = molecular target: Gal3S(b1-3)[Fuc(a1-4)]GlcNAc
Procedure, shortened: (§1)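 The Consortium for Functional Glycomics database supplied 3228 glycan arrays, of which those lacking an available protein sequence were dropped. The binding signal, a within-array Z-score, was averaged across arrays of the same protein sequence and across linkers. Negative scores can be read as non-binding.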

Gal3S(b1-4)Glc = molecular target: Gal3S(b1-4)Glc
Procedure, shortened: as §1

Gal3S(b1-4)Glc6S = molecular target: Gal3S(b1-4)Glc6S
Procedure, shortened: as §1

Gal3S(b1-4)GlcNAc = molecular target: Gal3S(b1-4)GlcNAc
Procedure, shortened: as §1

[2] = molecular target: Gal3S(b1-4)[Fuc(a1-3)]Glc6S
Procedure, shortened: as §1

[3] = molecular target: Gal3S(b1-4)[Fuc(a1-3)]GlcNAc
Procedure, shortened: as §1

[4] = molecular target: Gal3S(b1-4)[Fuc(a1-3)]GlcNAc6S
Procedure, shortened: as §1

Gal3S4S(b1-4)GlcNAc = molecular target: Gal3S4S(b1-4)GlcNAc
Procedure, shortened: as §1

Gal3S6S(b1-4)GlcNAc = molecular target: Gal3S6S(b1-4)GlcNAc
Procedure, shortened: as §1

Gal3S6S(b1-4)GlcNAc6S = molecular target: Gal3S6S(b1-4)GlcNAc6S
Procedure, shortened: as §1

Gal4S(b1-4)GlcNAc = molecular target: Gal4S(b1-4)GlcNAc
Procedure, shortened: as §1

Gal4S6S(b1-4)GlcNAc = molecular target: Gal4S6S(b1-4)GlcNAc
Procedure, shortened: as §1

Gal6P(b1-4)GlcNAc = molecular target: Gal6P(b1-4)GlcNAc
Procedure, shortened: as §1

Gal6S(b1-3)GlcNAc = molecular target: Gal6S(b1-3)GlcNAc
Procedure, shortened: as §1

Gal6S(b1-3)GlcNAc6S = molecular target: Gal6S(b1-3)GlcNAc6S
Procedure, shortened: as §1

Gal6S(b1-4)Glc = molecular target: Gal6S(b1-4)Glc
Procedure, shortened: as §1

Gal6S(b1-4)Glc6S = molecular target: Gal6S(b1-4)Glc6S
Procedure, shortened: as §1

Gal6S(b1-4)GlcNAc = molecular target: Gal6S(b1-4)GlcNAc
Procedure, shortened: as §1

Gal6S(b1-4)GlcNAc6S = molecular target: Gal6S(b1-4)GlcNAc6S
Procedure, shortened: as §1

GalNAc(a1-3)Gal = molecular target: GalNAc(a1-3)Gal
Procedure, shortened: as §1

GalNAc(a1-3)GalNAc = molecular target: GalNAc(a1-3)GalNAc
Procedure, shortened: as §1

[5] = molecular target: GalNAc(a1-3)GalNAc(b1-3)Gal(a1-4)Gal(b1-4)Glc
Procedure, shortened: as §1

[6] = molecular target: GalNAc(a1-3)GalNAc(b1-3)Gal(a1-4)Gal(b1-4)GlcNAc
Procedure, shortened: as §1

GalNAc(b1-3)Gal = molecular target: GalNAc(b1-3)Gal
Procedure, shortened: as §1

[7] = molecular target: GalNAc(b1-3)Gal(a1-4)Gal(b1-4)GlcNAc
Procedure, shortened: as §1

[8] = molecular target: GalNAc(b1-3)Gal(a1-4)Gal(b1-4)GlcNAc(b1-3)Gal(b1-4)Glc
Procedure, shortened: as §1

[9] = molecular target: GalNAc(b1-3)Gal(a1-6)Gal(b1-4)Glc
Procedure, shortened: as §1

GalNAc(b1-3)GalNAc = molecular target: GalNAc(b1-3)GalNAc
Procedure, shortened: as §1

GalNAc(b1-3)GlcNAc = molecular target: GalNAc(b1-3)GlcNAc
Procedure, shortened: as §1

GalNAc(b1-4)Gal(b1-4)Glc = molecular target: GalNAc(b1-4)Gal(b1-4)Glc
Procedure, shortened: as §1

GalNAc(b1-4)GlcNAc = molecular target: GalNAc(b1-4)GlcNAc
Procedure, shortened: as §1

[10] = molecular target: GalNAc(b1-4)GlcNAc(b1-2)Man
Procedure, shortened: as §1

[11] = molecular target: GalNAc(b1-4)GlcNAc(b1-2)Man(a1-3)[GalNAc(b1-4)GlcNAc(b1-2)Man(a1-6)]Man(b1-4)GlcNAc(b1-4)GlcNAc
Procedure, shortened: as §1

[12] = molecular target: GalNAc(b1-4)GlcNAc(b1-3)GalNAc(b1-4)GlcNAc
Procedure, shortened: as §1

GalNAc(b1-4)GlcNAc6S = molecular target: GalNAc(b1-4)GlcNAc6S
Procedure, shortened: as §1

GalNAc(b1-6)GalNAc = molecular target: GalNAc(b1-6)GalNAc
Procedure, shortened: as §1

GalNAc3S(b1-4)GlcNAc = molecular target: GalNAc3S(b1-4)GlcNAc
Procedure, shortened: as §1

GalNAc3S(b1-4)GlcNAc3S = molecular target: GalNAc3S(b1-4)GlcNAc3S
Procedure, shortened: as §1

[13] = molecular target: GalNAc3S(b1-4)[Fuc(a1-3)]GlcNAc
Procedure, shortened: as §1

GalNAc4S6S(b1-4)GlcNAc = molecular target: GalNAc4S6S(b1-4)GlcNAc
Procedure, shortened: as §1

GalNAc6S(b1-4)GlcNAc = molecular target: GalNAc6S(b1-4)GlcNAc
Procedure, shortened: as §1

Glc(a1-4)Glc = molecular target: Glc(a1-4)Glc
Procedure, shortened: as §1

[14] = molecular target: Glc(a1-4)Glc(a1-4)Glc(a1-4)Glc
Procedure, shortened: as §1

Glc(a1-6)Glc(a1-6)Glc = molecular target: Glc(a1-6)Glc(a1-6)Glc
Procedure, shortened: as §1

[15] = molecular target: Glc(a1-6)Glc(a1-6)Glc(a1-6)Glc
Procedure, shortened: as §1

Glc(b1-4)Glc = molecular target: Glc(b1-4)Glc
Procedure, shortened: as §1

Glc(b1-6)Glc = molecular target: Glc(b1-6)Glc
Procedure, shortened: as §1

GlcA(b1-3)Gal = molecular target: GlcA(b1-3)Gal
Procedure, shortened: as §1

GlcA(b1-3)GlcNAc = molecular target: GlcA(b1-3)GlcNAc
Procedure, shortened: as §1

GlcA(b1-6)Gal = molecular target: GlcA(b1-6)Gal
Procedure, shortened: as §1

[16] = molecular target: GlcA3S(b1-3)Gal(b1-4)GlcNAc(b1-2)Man
Procedure, shortened: as §1

[17] = molecular target: GlcA3S(b1-3)Gal(b1-4)GlcNAc(b1-3)Gal(b1-4)Glc
Procedure, shortened: as §1

[18] = molecular target: GlcNAc(a1-3)Gal(b1-4)GlcNAc
Procedure, shortened: as §1

[19] = molecular target: GlcNAc(a1-4)Gal(b1-3)GlcNAc
Procedure, shortened: as §1

[20] = molecular target: GlcNAc(a1-4)Gal(b1-4)GalNAc
Procedure, shortened: as §1

[21] = molecular target: GlcNAc(a1-4)Gal(b1-4)GlcNAc
Procedure, shortened: as §1

[22] = molecular target: GlcNAc(a1-4)Gal(b1-4)GlcNAc(b1-3)Gal(b1-4)Glc
Procedure, shortened: as §1

[23] = molecular target: GlcNAc(a1-4)Gal(b1-4)GlcNAc(b1-3)Gal(b1-4)GlcNAc
Procedure, shortened: as §1

[24] = molecular target: GlcNAc(a1-4)Gal(b1-4)GlcNAc(b1-3)Gal(b1-4)GlcNAc(b1-3)Gal(b1-4)GlcNAc
Procedure, shortened: as §1

[25] = molecular target: GlcNAc(a1-4)Gal(b1-4)GlcNAc(b1-3)Gal(b1-4)[Fuc(a1-3)]GlcNAc(b1-3)Gal(b1-4)[Fuc(a1-3)]GlcNAc
Procedure, shortened: as §1

B1: Di AAL2 (Agrocybe aegerita) (protein)
chain: MTSNVITQDLPIPVASRGFADIVGFGLDGVVIGRNAVNLQPFLAVKNFAQNAGGWLTTKHVRLIADTTGTGKGDIVGFGNAGVYVSVNNGKNTFADPPKMVIANFGYDAGGWRVEKHLRYLADIRKIGRADIIGFGEKGVLVSRNNGGLNFGPATLVLKDFGYDAGGWRLDRHLRFLADVTGNGHLDIVGFGDKHVFISRNNGDGTFAPAKSVIDNFCIDAGGWKIGDHPRFVADLTGDGTADIIGCGKAGCWVALNNGGGVFGQVKLVINDFGTDKGWQAAKHPRFIADLTGNGRGDVVGFGNAGVYVALNNGDGTFQSAKLVLKDFGVQQGWTVSKHRRFVVDLTGDGCADIIGFGEKETLVSYNDGKGNFGPVKALTNDFSFSGGKWAPETTVCWMANLDSSRHPAPAPMTSNVITQDLPIPVASRGFADIVGFGLDGVVIGRNAVNLQPFLAVKNFAQNAGGWLTTKHVRLIADTTGTGKGDIVGFGNAGVYVSVNNGKNTFADPPKMVIANFGYDAGGWRVEKHLRYLADIRKIGRADIIGFGEKGVLVSRNNGGLNFGPATLVLKDFGYDAGGWRLDRHLRFLADVTGNGHLDIVGFGDKHVFISRNNGDGTFAPAKSVIDNFCIDAGGWKIGDHPRFVADLTGDGTADIIGCGKAGCWVALNNGGGVFGQVKLVINDFGTDKGWQAAKHPRFIADLTGNGRGDVVGFGNAGVYVALNNGDGTFQSAKLVLKDFGVQQGWTVSKHRRFVVDLTGDGCADIIGFGEKETLVSYNDGKGNFGPVKALTNDFSFSGGKWAPETTVCWMANLDSSRH
glycan array binding signal (z-score) [1]: -0.33 | glycan array binding signal (z-score) (Gal3S(b1-4)Glc): -0.334 | glycan array binding signal (z-score) (Gal3S(b1-4)Glc6S): -0.332 | glycan array binding signal (z-score) (Gal3S(b1-4)GlcNAc): -0.335 | glycan array binding signal (z-score) [2]: -0.306 | glycan array binding signal (z-score) [3]: -0.34 | glycan array binding signal (z-score) [4]: -0.321 | glycan array binding signal (z-score) (Gal3S4S(b1-4)GlcNAc): -0.336 | glycan array binding signal (z-score) (Gal3S6S(b1-4)GlcNAc): -0.336 | glycan array binding signal (z-score) (Gal3S6S(b1-4)GlcNAc6S): -0.302 | glycan array binding signal (z-score) (Gal4S(b1-4)GlcNAc): -0.348 | glycan array binding signal (z-score) (Gal4S6S(b1-4)GlcNAc): -0.338 | glycan array binding signal (z-score) (Gal6P(b1-4)GlcNAc): -0.318 | glycan array binding signal (z-score) (Gal6S(b1-3)GlcNAc): -0.327 | glycan array binding signal (z-score) (Gal6S(b1-3)GlcNAc6S): -0.328 | glycan array binding signal (z-score) (Gal6S(b1-4)Glc): -0.338 | glycan array binding signal (z-score) (Gal6S(b1-4)Glc6S): -0.326 | glycan array binding signal (z-score) (Gal6S(b1-4)GlcNAc): -0.34 | glycan array binding signal (z-score) (Gal6S(b1-4)GlcNAc6S): -0.331 | glycan array binding signal (z-score) (GalNAc(a1-3)Gal): -0.253 | glycan array binding signal (z-score) (GalNAc(a1-3)GalNAc): -0.285 | glycan array binding signal (z-score) [5]: -0.179 | glycan array binding signal (z-score) [6]: -0.226 | glycan array binding signal (z-score) (GalNAc(b1-3)Gal): 0.303 | glycan array binding signal (z-score) [7]: -0.199 | glycan array binding signal (z-score) [8]: -0.077 | glycan array binding signal (z-score) [9]: -0.033 | glycan array binding signal (z-score) (GalNAc(b1-3)GalNAc): 1.5 | glycan array binding signal (z-score) (GalNAc(b1-3)GlcNAc): -0.318 | glycan array binding signal (z-score) (GalNAc(b1-4)Gal(b1-4)Glc): -0.329 | glycan array binding signal (z-score) (GalNAc(b1-4)GlcNAc): -0.195 | glycan array binding signal (z-score) [10]: -0.315 | glycan array binding signal (z-score) [11]: -0.306 | glycan array binding signal (z-score) [12]: 0.421 | glycan array binding signal (z-score) (GalNAc(b1-4)GlcNAc6S): -0.324 | glycan array binding signal (z-score) (GalNAc(b1-6)GalNAc): -0.281 | glycan array binding signal (z-score) (GalNAc3S(b1-4)GlcNAc): -0.335 | glycan array binding signal (z-score) (GalNAc3S(b1-4)GlcNAc3S): -0.327 | glycan array binding signal (z-score) [13]: -0.328 | glycan array binding signal (z-score) (GalNAc4S6S(b1-4)GlcNAc): -0.269 | glycan array binding signal (z-score) (GalNAc6S(b1-4)GlcNAc): -0.311 | glycan array binding signal (z-score) (Glc(a1-4)Glc): -0.332 | glycan array binding signal (z-score) [14]: -0.33 | glycan array binding signal (z-score) (Glc(a1-6)Glc(a1-6)Glc): -0.333 | glycan array binding signal (z-score) [15]: -0.326 | glycan array binding signal (z-score) (Glc(b1-4)Glc): -0.324 | glycan array binding signal (z-score) (Glc(b1-6)Glc): -0.325 | glycan array binding signal (z-score) (GlcA(b1-3)Gal): -0.329 | glycan array binding signal (z-score) (GlcA(b1-3)GlcNAc): 2.48 | glycan array binding signal (z-score) (GlcA(b1-6)Gal): -0.325 | glycan array binding signal (z-score) [16]: -0.327 | glycan array binding signal (z-score) [17]: -0.311 | glycan array binding signal (z-score) [18]: 2.92 | glycan array binding signal (z-score) [19]: 1.07 | glycan array binding signal (z-score) [20]: 1.54 | glycan array binding signal (z-score) [21]: 2.75 | glycan array binding signal (z-score) [22]: 2.79 | glycan array binding signal (z-score) [23]: 2.68 | glycan array binding signal (z-score) [24]: 3.24 | glycan array binding signal (z-score) [25]: 1.47
